Out of some 110,000 compounds screened, about 230 (0.21%) showed an effect of 50% or more. The list shows a part of the results.
Biological target: DPAP1 (Plasmodium falciparum, UniProt Q8IIJ9)
Experiment: primary screen, percent inhibition; read by cleavage of a fluorogenic dipeptide substrate; higher = more effect of the substance
Set-up: species or system P. falciparum D10 trophozoite lysates; single well
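Further: 30 min substrate incubation versus DMSO and 10 µM JCP410 controls.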

Chain of DPAP1 (Q8IIJ9 whole entry, looked up): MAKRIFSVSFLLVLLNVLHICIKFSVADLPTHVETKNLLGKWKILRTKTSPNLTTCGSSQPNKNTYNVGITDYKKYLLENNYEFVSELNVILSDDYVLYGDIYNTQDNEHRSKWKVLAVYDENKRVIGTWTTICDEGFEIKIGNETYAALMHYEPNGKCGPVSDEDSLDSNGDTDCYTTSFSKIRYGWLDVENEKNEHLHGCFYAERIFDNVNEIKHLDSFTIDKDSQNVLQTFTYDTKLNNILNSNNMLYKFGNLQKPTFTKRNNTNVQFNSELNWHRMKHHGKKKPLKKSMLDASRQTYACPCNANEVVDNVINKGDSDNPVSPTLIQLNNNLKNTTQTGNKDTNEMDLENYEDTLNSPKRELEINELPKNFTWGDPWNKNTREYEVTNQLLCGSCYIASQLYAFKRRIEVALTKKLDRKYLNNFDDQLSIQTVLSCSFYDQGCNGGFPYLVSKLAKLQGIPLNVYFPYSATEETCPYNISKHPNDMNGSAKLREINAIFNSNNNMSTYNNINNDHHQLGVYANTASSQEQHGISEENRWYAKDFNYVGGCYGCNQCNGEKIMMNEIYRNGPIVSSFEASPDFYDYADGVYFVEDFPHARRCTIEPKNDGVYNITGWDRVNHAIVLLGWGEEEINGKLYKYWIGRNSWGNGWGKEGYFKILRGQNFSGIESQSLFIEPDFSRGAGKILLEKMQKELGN

| SMILES | % Inhibition @ 10 uM |
| --- | --- |
| COc1ccc(C2(C(=O)NC(C)(C)C)CCOCC2)cc1 | 3.1% |
| COc1ccc(-n2c(SCC(=O)Nc3nc(C)cs3)nnc2-c2c[nH]c3ccccc23)cc1 | 0.44% |
| COc1ccc(S(=O)(=O)N[C@@H](Cc2ccc3ccccc3c2)C(=O)NCC#N)cc1 | -7.36% |
| COc1ccccc1N1CCN(C(=O)Cc2c(SC)[nH]c3ccccc23)CC1 | 2.48% |
| COc1ccc(-c2nc3ccccc3n2CC(C)C)cc1 | -0.551% |
| COc1cccc(C2C3=C(O)CCCC3=NC(C)=C2C(=O)Nc2ccccc2F)c1 (stereo not shown) | -5.34% |
| CCOC(=O)c1cc(-c2ccc(OC)c(S(=O)(=O)NCCc3ccc(Cl)cc3)c2)on1 | 1.61% |
| O=C(NS(=O)(=O)c1cnccc1Sc1ccc(Cl)cc1)c1ccc(Cl)cc1 | -8.92% |
| Nc1ncccc1NC(=O)CCCC(=O)O | -4.42% |
| Cc1oc(-c2ccccc2)nc1CSc1nc2ncccc2o1 | 1.97% |
| Brc1cnc2[nH]c(COc3ccccc3)nc2c1 | 0.0345% |
| CC(Cc1ccccc1)(NC(=O)CN)c1ccccc1 (stereo not shown) | 1.43% |
| Cc1nc(N2C(=O)C(O)=C(C(=O)c3cccs3)C2c2cccc(Br)c2)sc1C (stereo not shown) | -12.6% |
| Cc1nc2cc(-c3ccccc3)nn2c(C)c1CCC(=O)NCCCN1CCCC1=O | -2.25% |
| Cc1cc(C)n(-c2nc(-c3cccnc3)nc3ccccc23)n1 | 0.408% |
| CN(Cc1ccccc1)C(=O)c1cc(-c2ccco2)[nH]n1 | 1.76% |
| CC1CCN(S(=O)(=O)c2ccc3c(ccn3CCC(=O)NC3CCCc4ccccc43)c2)CC1 (stereo not shown) | -1.08% |
| CCC1=NN(C(=O)c2ccccc2OC)C(O)(C(F)(F)F)C1 (stereo not shown) | -1.96% |
| O=C(Cn1c(-c2ccccn2)nc2ccccc21)NCCCN1CCOCC1 | -5.92% |
| Cc1cc(=O)oc2c3c(ccc12)OCN(c1ccccn1)C3 | -6.85% |
| Clc1ccc(-c2ccc(CN3CCc4ccccc4C3)o2)cc1 | -4.75% |
| Cc1cccc(/C=C2/SC(=O)N(Cc3ccccc3Cl)C2=O)n1 | -4.88% |

| SMILES | % Inhibition @ 10 uM |
| --- | --- |
| O=C(NCc1ccc2c(c1)OCO2)c1ccccc1Br | 2.92% |
| CCOC(=O)c1sc(NC(=O)c2nc(S(C)(=O)=O)ncc2Cl)c(C(=O)OCC)c1C | -1.11% |
| COCc1[nH]nc2c1C(c1cc(OC)ccc1OC)C(C#N)=C(N)O2 (stereo not shown) | 4.39% |
| O=S(=O)(NCCc1ccc(Cl)cc1)c1ccc2[nH]c3c(c2c1)CCCC3 | 1.71% |
| O=C1c2ccccc2C(=O)C1(c1ccccc1)N1CCN(CCO)CC1 | -1.83% |
| CCc1ccc(-c2nc(CSCC(=O)NCc3cccs3)c(C)o2)cc1 | 3.99% |
| C1=C(CCNc2nc3ccccc3n3nnnc23)CCCC1 | -2.25% |
| O=C(C1CCC(=O)N1C1CCCC1)N1CCC2(CC1)OCCO2 (stereo not shown) | -1.21% |
| COc1ccccc1N1C(=O)C2ON(c3ccccc3)C(c3cccc([N+](=O)[O-])c3)C2C1=O (stereo not shown) | 6.8% |
| Cc1ccc(NC(=O)c2ccc(C)o2)c(NC(=O)c2ccc(C)o2)c1 | -11.8% |
| COC(=O)c1nnn(-c2nc(N(C)C)nc(N(C)C)n2)c1C | 2.57% |
| Cc1cccc(CSc2nc3ccc(C(=O)NCc4ccco4)cc3n2C)c1 | 3.71% |
| COc1ccc(-c2nc(N)n(C(=O)c3ccccc3Cl)n2)cc1 | -1.1% |
| CN(C)c1ccc2c(c1)OC(N)=C(C#N)C2c1ccc(-c2ccccc2)cc1 (stereo not shown) | 6.06% |
| Cc1cc(C)c2oc(C(=O)Nc3cccnc3)cc(=O)c2c1 | -8.95% |
| Cc1c(C#N)c2ncnc(Cl)c2n1-c1ccccc1 | 3.05% |
| CCC(C)NC(=O)Cc1cn(C)c2ccccc12 (stereo not shown) | -8.17% |
| Cc1cc(C)nc(NS(=O)(=O)c2ccc(NC(=O)COc3c(C)cccc3C)cc2)n1 | 1.57% |
| CC1=C(C(=O)OCC2CCCCC2)C(c2ccccc2OC(C)C)NC(=O)N1 (stereo not shown) | 8.98% |
| Cc1nn(-c2ccccc2)c(-n2cccc2)c1C(=O)N1CCN(C(=O)c2ccco2)CC1 | -1.58% |
| O=C(COc1ccc(Cl)cc1Cl)Nc1ccccc1[N+](=O)[O-] | -5.51% |
| CC(C)NC(=O)c1cnn2c(C(F)F)cc(-c3ccccc3)nc12 | -0.958% |

| SMILES | % Inhibition @ 10 uM |
| --- | --- |
| COc1ccccc1C(=O)N(Cc1cccc(F)c1)C1CCS(=O)(=O)C1 (stereo not shown) | -3.34% |
| Cc1ccc(S(=O)(=O)N2CCN(CC(O)COc3ccc4ccccc4c3)CC2)c(C)c1 (stereo not shown) | -6.59% |
| Cc1ccccc1Cn1cnc2ccc(Cl)cc2c1=O | 28.3% |
| CCc1cccc(CC)c1NC(=O)c1ccc(CN2CCOCC2)cc1 | -5.54% |
| Cn1c(C(=O)NCCc2ccccc2)cc2sccc21 | -1.37% |
| O=C(Nc1nc(C2C3CC4CC(C3)CC2C4)cs1)c1c(O)nc2ccccc2c1O (stereo not shown) | -5.49% |
| O=c1c2c3c(sc2[nH]c(=S)n1Cc1ccccc1)CCC3 | 21% |
| Nc1nc(NCCc2ccccc2)nc(-c2cc(Cl)ccc2O)n1 | -1.17% |
| Cc1onc(-c2ccccc2Cl)c1C(=O)NC(C)c1ccccc1 (stereo not shown) | -0.769% |
| Cc1cccc(OCC(=O)Nc2ccc3c(c2)OCO3)c1 | -1.52% |
| CSc1ccc(CCNCc2c(C(=O)O)c(C)n(Cc3ccc(F)cc3Cl)c2C)cc1 | 2.99% |
| CC(=O)c1[nH]c(C)c(C(=O)NCc2ccccc2Cl)c1C | 5.27% |
| C=CCn1c(SCc2ccccc2Cl)nc2c1c(=O)[nH]c(=O)n2C | -0.273% |
| O=C(NCc1ccco1)c1ccc(CSCc2ccccc2Cl)o1 | 3.79% |
| O=C(c1cccnc1Cl)N1CCN(C(c2ccccc2)c2ccccc2)CC1 | -4.33% |
| O=C(NCCCN1CCOCC1)Nc1cccc2ccccc12 | -2.18% |
| CC(C)n1c(SCCCc2ccccc2)nc2c1c(=O)[nH]c(=O)n2C | 2.38% |
| c1cc(-c2nnco2)ccn1 | 0.238% |
| Cn1c2ccccc2c2nnc(NCCc3c[nH]c4ccccc34)nc21 | -2.48% |
| CN(Cc1ccco1)C(=O)c1cc2c(s1)-c1ccc(Cl)cc1S(=O)(=O)C2 | -2.45% |

Reference: PMC6919601, “Identification of Plasmodium dipeptidyl aminopeptidase allosteric inhibitors by high throughput screening” (PLoS ONE, 2019)
